According to the supplement of paper PMC3334620:
In all, about 33,000 sequences were measured (“E-score (-0.5 to 0.5)”: median about -0.012, highest 2% from about 0.27 on). The list shows a part of the results.

Biological target: T1, Vhr1 (UniProt P40522)
T1 sequence: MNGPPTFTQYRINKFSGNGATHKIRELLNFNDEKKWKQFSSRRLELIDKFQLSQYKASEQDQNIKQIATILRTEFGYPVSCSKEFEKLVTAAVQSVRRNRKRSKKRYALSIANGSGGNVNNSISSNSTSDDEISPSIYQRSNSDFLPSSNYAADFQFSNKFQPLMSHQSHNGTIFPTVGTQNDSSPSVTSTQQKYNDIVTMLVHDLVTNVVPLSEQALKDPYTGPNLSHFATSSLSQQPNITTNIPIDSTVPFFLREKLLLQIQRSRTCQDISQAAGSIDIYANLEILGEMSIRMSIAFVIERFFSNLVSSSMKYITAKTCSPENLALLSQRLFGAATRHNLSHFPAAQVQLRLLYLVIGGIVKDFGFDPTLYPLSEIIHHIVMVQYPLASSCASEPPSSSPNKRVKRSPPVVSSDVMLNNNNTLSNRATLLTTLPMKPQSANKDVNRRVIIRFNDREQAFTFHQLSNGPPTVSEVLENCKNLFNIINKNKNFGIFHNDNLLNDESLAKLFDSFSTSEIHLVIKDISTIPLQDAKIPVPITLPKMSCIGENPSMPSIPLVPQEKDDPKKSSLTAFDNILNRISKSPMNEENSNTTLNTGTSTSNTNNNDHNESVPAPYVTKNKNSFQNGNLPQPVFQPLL
Experiment: PBM E-score (8-mer binding enrichment) (E-score (-0.5 to 0.5)); higher = stronger / more preferred TF binding; most listed sequences are background and not binding sites
Conditions: protein concentration: 200 nM; construct: GST-full length
Method: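 Universal 'all 10-mer' protein binding microarrays (Agilent AMADID 015681) probed with GST-tagged S. cerevisiae TFs (full-length or DBD) made by in vitro transcription/translation (PURExpress), about 100-200 nM. Bound TF was detected with fluorescent anti-GST. Each ungapped 8-mer (which stands for itself and its reverse complement) is scored by the PBM enrichment score (E-score), a modified Wilcoxon-Mann-Whitney statistic from -0.5 to +0.5, computed with the Universal PBM Analysis Suite. Scale: above 0.35 generally sequence-specific binding.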

Row | Sequence | PBM E-score
1 | ATACACAA | 0.0897
2 | AAACGGGG | -0.077
3 | CCGGCAGC | 0.142
4 | AGGCTCCG | 0.00274
5 | CTACGCAG | 0.0899
6 | CGTCTGGC | 0.0545
7 | AGGAAGGA | -0.299
8 | AACCCTTA | -0.0405
9 | TACAGCAA | 0.134
10 | CGGGTTCC | -0.0343
11 | AACTGAAC | -0.0865
12 | CCAGCTGA | 0.137
13 | CATAAAAC | -0.0799
14 | GGGGGAGA | -0.0487
15 | ATTCGACA | -0.0266
16 | AGGACGGC | -0.0936
17 | AGCCGCGG | 0.178
18 | GCTAGGCA | -0.298
19 | ACACCTTC | 0.141
20 | CCGCCTGC | 0.0663
21 | CCACTCAA | 0.133
22 | ATATGACA | 0.152
23 | CTACCACA | 0.079
24 | CATGGCGA | 0.184

Row | Sequence | PBM E-score
25 | ATGTTGGG | -0.0871
26 | CTTACTAC | -0.0344
27 | ATCGCCCC | 0.0247
28 | GGAGGGAC | -0.0584
29 | CAGGACTG | 0.0646
30 | CCCCGGAC | -0.0118
31 | CACCCGGA | 0.265
32 | CTTACAGC | -0.158
33 | CCACTCAG | 0.0902
34 | CAACGGAG | 0.00986
35 | GTCTCCAA | -0.0678
36 | CCGACGTA | -0.12
37 | GTACTAAA | -0.0304
38 | CCTCCTAC | -0.133
39 | ATTTTTGG | -0.23
40 | ACTAGTGC | -0.0374
41 | CACACCCA | 0.256
42 | ACACTAAC | 0.144
43 | CGATAGAC | 0.0252
44 | AGGGGACT | -0.0607
45 | GTGCGCAA | 0.0475
46 | ACCTTTGG | -0.0844
47 | GAGTTAGC | 0.0211
48 | CCTTCATA | -0.0115

Row | Sequence | PBM E-score
49 | GCCCCGCC | 0.242
50 | ACTAACGA | 0.146
51 | CGTCGTGA | -0.118
52 | CAAGAAGC | -0.0878
53 | AGGCCTCA | -0.303
54 | AGTAAACA | 0.00934
55 | GTCGTCTA | -0.0586
56 | TCCCTCGA | 0.0201
57 | CGAACGCG | 0.075
58 | GCAACTAA | 0.0737
59 | CGTTTCGC | -0.0307
60 | CAGCATGG | 0.115
61 | AGGCAGGG | 0.0138
62 | AGGAGAGG | -0.163
63 | CAGCGAGC | 0.135
64 | ATAGGAAT | -0.0918
65 | GAAATACC | -0.0176
66 | GAAGCCCC | -0.201
67 | GAACGCTC | -0.141
68 | AGCCCGCC | 0.186
69 | AGCAATCA | 0.122
70 | ACGCACCC | -0.0712
71 | CTCTGTAC | -0.0401
72 | ATCAGAAT | 0.105

Row | Sequence | PBM E-score
73 | CTACGTTC | -0.199
74 | CTTCATGA | 0.145
75 | ATATGACC | 0.106
76 | CCTGAGTC | 0.461
77 | GAGAACGC | 0.0381
78 | ATGTGCCC | 0.0949
79 | AGGAGCAG | -0.303
80 | CATTACTC | 0.22
81 | GTAATGAA | -0.104
82 | AAACCATT | -0.0648
83 | CCGCATAG | 0.0726
84 | GCTTAAAC | -0.18
85 | CTCGCCAA | -0.164
86 | ACCATGTA | 0.261
87 | ATTTGGTG | -0.068
88 | ATTCCGTA | 0.0633
89 | ATCACCGG | 0.0794
90 | CTTTGCTA | -0.0197
91 | GCGTTTAC | -0.163
92 | CGCCGTAA | -0.108
93 | AAGTCCCT | -0.214
94 | TCCCCTCA | 0.245
